According to the supplement of paper PMC11417369:
± gives the standard deviation of the averaged measurements. Some of the results follow.

Tested on: PfAP2-G AP2 domain (GST-tagged)
Assay: gcPBM binding intensity (ln(normalized median fluorescence intensity)); higher = stronger DNA binding
Summary of the method: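 For binding intensity, the highest Masliner-normalised natural-log median intensity across replicate spots of either probe orientation was taken. Protein bound to the array was stained with Alexa488 anti-GST antibody and scanned at 488 nm. The protein, GST-tagged P. falciparum DNA-binding domains from E. coli at about 25 μg on average, had been applied for 1 h to an Agilent 4 × 180k array of primer-extended double-stranded 36-bp intergenic genomic probes and negative controls.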

Sequence	gcPBM binding intensity (ln)
AATTAAATTACTTATACACACATAAAATGCCTGTAT [CACACA_site6597]	9.82 ± 0.16
TATTTATTCTCCAACACACACACATATATTTATATA [CACACA_site7376]	10.2 ± 0.35
AGTTTGTCAATCAACACACACCTATTTATTATAGAT [CACACA_site7777]	9.915 ± 0.035
TTGATAATTATATAATGTACTCATTATAATATGATG [XGTACX_site7813]	11.3 ± 0.98
TATAAAAAAAAAAAAAGTACTAACTTAAAACAATTT [XGTACX_site7969]	11.1 ± 0.76
TTTATTCTCAAACACACACACATATATATATATATA [CACACA_site2895]	9.99 ± 0.22
TAATTAATAATAATATGTACATATTAATATATTATT [XGTACX_site6900]	11.1 ± 0.71
TTTTATATATATATCACACACACACCCATGTTTTAA [CACACA_site79]	10.2 ± 0.23
TGATAAAGTAAATATACATGCGATTAGTTATATATA [TGCATGCA_site720]	9.38 ± 0.57
TTTTTTTTACATTCTGCACACAATTTATTTTTTTTT [CACACA_site36]	10.11 ± 0.078
AAAAATGAGTGACACACACACATATAAATATAAATA [CACACA_site7115]	10.1 ± 0.25
AAATCAAACTTTGGTGTGCACAAATATATACATATA [GTGCAC_site9986]	10.7 ± 0.34
GTAATTTTAAAGAAAAGTACACATTTATTAATTATT [XGTACX_site4468]	11.5 ± 1.2
ACATATAAATATTGTGTGCACACACATAATATATAT	10.6 ± 0.34
TATGTATTTAAGTTACCTGAACGTTCAGGTAAAATT [CACACA_negctrl_site1393]	10.2 ± 0.23
GTGTTAAATGTTTACACACAAACTTGCAATAATTAT [CACACA_site3825]	10.14 ± 0.057
AAAAATTATAACTAAAAAAATCACACAAAATATTTT [TGCATGCA_negctrl_site28]	9.865 ± 0.049
TTGCATTTATTATACACACACAAAAAAATATATATA [CACACA_site238]	10.2 ± 0.3
ATATTAATATATGTGGCACACATGTGGAGTCCTATT [CACACA_site213]	10.7 ± 0.43
TATCATTTCTAAAAAGGTACACATACATCATATATT [XGTACX_site3386]	11.3 ± 0.87
GCGAGATGCTAAAATGCATGTTGGGCATTAGTTAAA [TGCATGCA_site586]	9.99 ± 0.014
TATAATAATTCTTTGAGTACTTAAACATGTGAAATT [XGTACX_site955]	11.3 ± 0.73
TATATATGTAAATGCACACATATGTGGATATACTTA [CACACA_site1699]	10.03 ± 0.085

Sequence	gcPBM binding intensity (ln)
GTGTAGTAAAATCGATGTACGTACAAATCAATTATT [XGTACX_site7662]	11.8 ± 0.83
AAAAAAATGAAGAAATGTACAAATTTCATTAATTTT [XGTACX_site354]	10.5 ± 0.12
CATTTTTACCGGTACTGTACATAAAAAAAAAAAAAG [XGTACX_site1548]	11.6 ± 1
TTATATGTTTTACAACGTACACAAAAAAAACTTATA [XGTACX_site4413]	11.4 ± 0.96
TGTATAACCTGTGTTACACACATTATGATTTATATA [CACACA_site525]	9.79 ± 0.2
GCAGGCTAAAAAATTACACACGAAAAAAATGAATTT [CACACA_site3417]	9.86
CATATATGGTTATATACATGCACCATTATATTATTA [TGCATGCA_site520]	10.4 ± 0.19
TATATAATATTTTTCACACACCATTTCCTTAAACAC [CACACA_site4862]	10.3 ± 0.32
TAAAAAAAAAGAAGGGGTACATGGATAATATATAAA [XGTACX_site8386]	11.5 ± 1
AATATATATAAAAAGGGAAAAATATATAAATAGATA [XGTACX_negctrl_site52]	9.46 ± 0.34
AAAGATAAAAAAAGTACACACACACCGATATATATA [CACACA_site9006]	11.6 ± 1
CACGAACACAAACACAAACACACATCATATATATAT [CACACA_site1322]	10.1 ± 0.55
ACTTTAACCTGAACGGTGCATAAAATTTTGGCATTA	10.2 ± 0.23
AAAAAATTGACTAATGCACACAATTACAGATATATA [CACACA_site5010]	10.1 ± 0.13
TCACAATTTTTTAGTACACACATATAAATATATAAA [CACACA_site1537]	11.6 ± 1.2
TTTGTATCCTTTTTGACATGCAACCATTCGGGTACA [TGCATGCA_site506]	11.3 ± 0.8
AAAAAAAAAAAAAACGCACACATTTTTACAATTCTA [CACACA_site3271]	10 ± 0.18
TCGTGCATAAATCATACACACACACCGATATATATA [CACACA_site8767]	10.1 ± 0.25
GTATACAAACATATAAATATAAATGTATTATTTGTT [CACACA_negctrl_site756]	9.58 ± 0.2
TTTCATTAATCTAATAGTACAGAAAATTGAGAAAAA [XGTACX_site8395]	11.1 ± 0.62
TCTATTAATTAATATACACACATTATGTATATATAT [CACACA_site2541]	9.92 ± 0.042
GTTTTGGCTAACTATTCACACATTAAAATATTACCA [CACACA_site5016]	10.3 ± 0.21
CACCATGATACATACACACAGACATATACGCATTCA [CACACA_site1008]	10.3 ± 0.16

Sequence	gcPBM binding intensity (ln)
ACAATCCACAGGGGCGCACACATATAAGCAGTATAT [CACACA_site3817]	10.6 ± 0.46
TAAACATAATATTTAACACACATGAAGATGTATATT [CACACA_site1036]	9.66 ± 0.14
ATAAATATTTACAAAAGTACACATAACTTTAGATAT [XGTACX_site1685]	11.4 ± 0.9
ATTTCACAGAGACACACACACAATATATTTCCTTTT [CACACA_site7773]	10.09 ± 0.042
AAAAAATTAATAAAAACACACAAAAAAAATAAACAA [CACACA_site1907]	10 ± 0.13
TTTGTTGTTTGGAGATGTACATATTTTACACTTTTT [XGTACX_site5965]	11.4 ± 0.93
ATAAAATATATGAAGACACACATAACATCATATTTT [CACACA_site3144]	9.895 ± 0.078
CATAATATGACATACACACACAAAAAAAAAAAAATA [CACACA_site1285]	10.1 ± 0.28
AACCGGGCCTAAGATGTAATGCCTTAGCCTATAAAA [CACACA_negctrl_site479]	9.59 ± 0.24
TTTATATTAAAATATTGTACGGACATTATTTTGTAA [XGTACX_site8128]	11.4 ± 0.8
ACACACAATACAAAAGTGCATATAATAATTAATCAT	10.1 ± 0.18
ATACATCGTATATAAGTGCATATTAAGGTCTTAAGA [GTGCAC_site9560]	10 ± 0.12
GAACATTTGAAATATGCACACATGTATAAACATACA [CACACA_site5463]	10.1 ± 0.11
TATATATGTATCAAGTGTACAGTTTTAAAAAAAAAA [XGTACX_site6011]	11.4 ± 0.87
TATTGACATATATTAGTGCAATAATGAAATCAAGTA	10 ± 0.13
CATATTATTCTTTTCACACACGCGTTAATAATAATC [CACACA_site3931]	10.3 ± 0.2
TATTTCATTAATGTCACTTTGAAAGAAATGAAAAAA [CACACA_negctrl_site1803]	10.1 ± 0.46
AAAAAAAAAAGACACACACACAAAATAAACAAACAA [CACACA_site7308]	10.2 ± 0.18
TGTTTTTAAAAAAAAAAAAAATCACACCGGCAGGTA [CACACA_negctrl_site1437]	9.82 ± 0.15
TGCGTATATATATACACACACATATATATATTTTAA [CACACA_site1952]	9.92 ± 0.11
CTAAATTATAGATCAGTGCAATTTAATATGAGTCCA	10.4 ± 0.21
AAAAAAAAAAAAAACACACACATACAGACAAAAATG [CACACA_site83]	10.3 ± 0.33
CCATAAAAATATAATACACACATATATATTAACATA [CACACA_site4102]	10 ± 0.23

Sequence	gcPBM binding intensity (ln)
AGGTGAGCTCAGACTACACACACAAAGAAAAAAATA [CACACA_site8439]	10.2 ± 0.28
TTGTAATTATTAAACACACACAAAATATATATAATA [CACACA_site2523]	10.3 ± 0.18
TTTTTAAAGGTGATAAAACACACGATTTAGAAATGT [CACACA_site3160]	10.1 ± 0.16
CCCACAGACAAAAACACACACAAAGGTGTTCTTATA [CACACA_site4840]	9.865 ± 0.021
AAGAGAAAAAGAATGAAAGAAAAAAAAAAAAAATAT [CACACA_negctrl_site1527]	9.54 ± 0.028
TTATCGACCAATAAAGCATGCAAAAAAAAAAAAAAA [TGCATGCA_site788]	10.3 ± 0.73
CTACATAAAAAAATATGTACATATATATATATATAT [XGTACX_site667]	11.2 ± 0.59
TAATGAAAATATATAACACACAAAAGTTATAAATAT [CACACA_site1189]	9.775 ± 0.064
TTTAATATAACTATTTGTACATAAAGAATATAAATA [XGTACX_site4594]	10.7 ± 0.42
TTTTTTTGCCATATTACACACACACGGGTAAACCCC [CACACA_site6874]	10.5 ± 0.42
TAAATTTTTATTTGTAGTACTATATATATATATATA [XGTACX_site1026]	11.2 ± 0.79
GTGTTGAATTATGTGCTTTTTTCTTTCTACTCAGTA [XGTACX_negctrl_site464]	10.3 ± 0.11
TATTATTTTTTTATTCTATTAAAAAGAAAAAAATGA [CACACA_negctrl_site407]	9.84 ± 0.3
AATTTATTTTTAAAAAGTACATACTTAAGAAAACGA [XGTACX_site3660]	11.4 ± 0.79
ATATTTTATATTTCTTGTACATATATTTGTAGATAT [XGTACX_site1140]	11.1 ± 0.64
TTTCTTACAACAACAACAAAAAAAAATAAATAAAAT [GTGCAC_negctrl_site711]	9.91 ± 0.16
AAACAAATAAAATTTATTAAAAAGGTCATATTATTA [CACACA_negctrl_site85]	10.2 ± 0.13
AGAAAAAAAAATTATACATGCATATACGTTTATTTT [TGCATGCA_site529]	9.76 ± 0.2
TCGACAATTTTATAAAGTACTTATTAGAAATATGAA [XGTACX_site7133]	11.1 ± 0.75
CCATTTAAAACATTTTGTACTTATTTTACATTTCTG [XGTACX_site4270]	11.2 ± 0.61
